{"source": "paper PMC4336329", "about": "(PLoS ONE, 2015)", "note": "About 2,200 (0.71%) of roughly 310,000 compounds showed an effect of 50% or more. Effects have a minus sign here. Some of the results follow.", "data": [{"target": "human ether-à-go-go-related gene (hERG) potassium channel (human, UniProt Q12809)", "sequence (Q12809 whole entry, looked up)": "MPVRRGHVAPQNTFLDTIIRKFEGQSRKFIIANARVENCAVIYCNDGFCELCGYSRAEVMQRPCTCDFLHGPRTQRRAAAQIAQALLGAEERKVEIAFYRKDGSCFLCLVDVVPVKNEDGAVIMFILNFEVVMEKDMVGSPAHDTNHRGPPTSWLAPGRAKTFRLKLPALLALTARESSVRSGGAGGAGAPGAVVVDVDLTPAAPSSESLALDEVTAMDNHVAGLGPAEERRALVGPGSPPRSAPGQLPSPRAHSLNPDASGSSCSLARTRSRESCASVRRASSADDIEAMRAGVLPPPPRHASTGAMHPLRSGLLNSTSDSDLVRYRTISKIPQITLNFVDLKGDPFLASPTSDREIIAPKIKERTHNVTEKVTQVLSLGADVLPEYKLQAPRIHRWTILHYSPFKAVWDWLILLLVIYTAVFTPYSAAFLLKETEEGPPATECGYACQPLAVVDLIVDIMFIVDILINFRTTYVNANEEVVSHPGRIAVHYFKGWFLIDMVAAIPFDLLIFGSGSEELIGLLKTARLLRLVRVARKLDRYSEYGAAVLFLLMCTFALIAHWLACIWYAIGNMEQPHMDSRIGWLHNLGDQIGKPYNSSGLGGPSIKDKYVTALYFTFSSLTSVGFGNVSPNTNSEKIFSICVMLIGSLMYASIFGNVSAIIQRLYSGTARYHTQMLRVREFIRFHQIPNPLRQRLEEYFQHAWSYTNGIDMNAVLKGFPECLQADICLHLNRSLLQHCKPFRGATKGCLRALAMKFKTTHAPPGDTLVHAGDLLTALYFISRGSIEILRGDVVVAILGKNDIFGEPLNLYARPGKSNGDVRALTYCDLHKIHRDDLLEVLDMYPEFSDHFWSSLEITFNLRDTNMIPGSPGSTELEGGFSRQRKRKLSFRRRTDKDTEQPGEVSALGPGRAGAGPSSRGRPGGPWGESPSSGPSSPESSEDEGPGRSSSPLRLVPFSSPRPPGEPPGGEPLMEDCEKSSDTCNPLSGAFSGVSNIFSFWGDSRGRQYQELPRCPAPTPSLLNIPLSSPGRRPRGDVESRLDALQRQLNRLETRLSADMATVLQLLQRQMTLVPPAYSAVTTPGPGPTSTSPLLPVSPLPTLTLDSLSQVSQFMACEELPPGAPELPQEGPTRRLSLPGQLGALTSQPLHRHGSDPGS", "assay": "primary screen, population patch clamp on CHO cells stably expressing hERG", "units": {"hERG current change (%, negative = inhibition) at 1uM": "%"}, "values": [{"smiles": "Cn1c(CC(=O)Nc2ccccc2)nnc1SCC(=O)Nc1ccc(N2CCOCC2)cc1", "hERG current change (%, negative = inhibition) at 1uM": 17.7}, {"smiles": "Cc1ccc(C)c(NC(=O)C2CCCN(S(=O)(=O)c3cccnc3)C2)c1", "note": "(centres unmarked)", "hERG current change (%, negative = inhibition) at 1uM": 20.2}, {"smiles": "CCc1ccc(N2CC(O)(c3cccs3)[N+]3=C2SCCC3)cc1.[Br-]", "note": "(centres unmarked)", "hERG current change (%, negative = inhibition) at 1uM": -38.5}, {"smiles": "CCOC(=O)c1cc(CC)sc1/N=C/C1=C(O)CC(C)(C)CC1=O", "hERG current change (%, negative = inhibition) at 1uM": 8.59}, {"smiles": "CC(C)(C)OC(=O)N/N=C/c1ccc(Br)cc1", "hERG current change (%, negative = inhibition) at 1uM": 11.1}, {"smiles": "COc1ccc(-c2cc(=O)oc3cc(OC(C)C(=O)O)ccc23)cc1", "note": "(centres unmarked)", "hERG current change (%, negative = inhibition) at 1uM": 9.71}, {"smiles": "NNc1ncnc2c1cnn2-c1ccccc1", "hERG current change (%, negative = inhibition) at 1uM": 5.6}, {"smiles": "CCOc1cc(C(=O)Nc2nnc(C)s2)cc(OCC)c1OCC", "hERG current change (%, negative = inhibition) at 1uM": 3.72}, {"smiles": "COc1ccc(-c2nc(SC(C)C(=O)c3c(N)n(C)c(=O)n(C)c3=O)n[nH]2)cc1", "note": "(centres unmarked)", "hERG current change (%, negative = inhibition) at 1uM": 19.1}, {"smiles": "Cc1cc(C)cc(C(=O)NN2CCOCC2)c1", "hERG current change (%, negative = inhibition) at 1uM": -0.432}, {"smiles": "CCCCc1cc(=O)oc2cc(C)cc(OC(C)C(=O)NC(Cc3c[nH]c4ccc(O)cc34)C(=O)O)c12", "note": "(centres unmarked)", "hERG current change (%, negative = inhibition) at 1uM": -5.83}, {"smiles": "COc1ccc(S(=O)(=O)N2CC=C(C(=O)Nc3ccc(NC(C)=O)cc3)CC2)cc1", "hERG current change (%, negative = inhibition) at 1uM": 25.2}, {"smiles": "CC#CCc1cc2ccccc2c(=O)o1", "hERG current change (%, negative = inhibition) at 1uM": 14.8}, {"smiles": "CN(CC(=O)Nc1ccc(N2CCOCC2)cc1)CC(=O)Nc1ccccc1[N+](=O)[O-]", "hERG current change (%, negative = inhibition) at 1uM": 8.04}, {"smiles": "O=C(Cc1ccccc1)Nc1nc(-c2cccc([N+](=O)[O-])c2)cs1", "hERG current change (%, negative = inhibition) at 1uM": 15.9}, {"smiles": "CNC(=O)C1CC(=O)N(CCc2ccc(C)cc2)C1", "note": "(centres unmarked)", "hERG current change (%, negative = inhibition) at 1uM": 16.2}, {"smiles": "COC(=O)COc1ccc(S(=O)(=O)NCC2CCCO2)cc1Cl", "note": "(centres unmarked)", "hERG current change (%, negative = inhibition) at 1uM": -4.66}, {"smiles": "COc1ccc(CNC(=O)Cn2nnc(-c3ccc(NC(=O)C4CCCCC4)cc3)n2)cc1", "hERG current change (%, negative = inhibition) at 1uM": 11.6}, {"smiles": "Cc1nc2ccc(NC(=O)NC(=O)c3c(Cl)cccc3Cl)cc2o1", "hERG current change (%, negative = inhibition) at 1uM": 13.8}, {"smiles": "N=c1c2c(-c3ccccc3)c(-c3ccccc3)n(Cc3ccco3)c2ncn1CCO", "hERG current change (%, negative = inhibition) at 1uM": -52.2}, {"smiles": "COCCCN(CC(=O)NCc1ccccc1)S(=O)(=O)c1ccc(C)cc1", "hERG current change (%, negative = inhibition) at 1uM": 1.98}, {"smiles": "O=C(O)Cn1c(=S)sc2ccccc21", "hERG current change (%, negative = inhibition) at 1uM": 12.2}, {"smiles": "Cc1ccc(S(=O)(=O)NCCC(=O)OCC(=O)N2CCCC2=O)cc1", "hERG current change (%, negative = inhibition) at 1uM": 8.81}, {"smiles": "CCOC(=O)c1cc(=O)c2ccc(OCC(=O)Nc3ccc(F)cc3)cc2o1", "hERG current change (%, negative = inhibition) at 1uM": 16.8}, {"smiles": "CCN(CCNC(=O)CCCn1nc(C)n2c(cc3sccc32)c1=O)c1ccccc1", "hERG current change (%, negative = inhibition) at 1uM": -1.14}, {"smiles": "Cc1ccc(NC(=O)C2CC(Cl)=CCC2C(=O)O)c([N+](=O)[O-])c1", "note": "(centres unmarked)", "hERG current change (%, negative = inhibition) at 1uM": 7.18}, {"smiles": "CC(C)OC(=O)COc1ccc(-c2ccccc2)cc1", "hERG current change (%, negative = inhibition) at 1uM": 11.3}, {"smiles": "CCn1c(=O)cc(OCC(=O)Nc2ccc(OC)c(OC)c2)c2ccccc21", "hERG current change (%, negative = inhibition) at 1uM": 3.13}, {"smiles": "O=[N+]([O-])c1cc(C(F)(F)F)cc([N+](=O)[O-])c1NCCCNc1ccc([N+](=O)[O-])c2cccnc12", "hERG current change (%, negative = inhibition) at 1uM": 9.82}, {"smiles": "C#CCn1c(=O)c2c(ncn2C)n(C)c1=O", "hERG current change (%, negative = inhibition) at 1uM": 12.2}, {"smiles": "N#CCCN(C(=O)COC(=O)CCc1c[nH]c2ccccc12)c1ccccc1", "hERG current change (%, negative = inhibition) at 1uM": 14.9}, {"smiles": "Cc1nn(C2CCS(=O)(=O)C2)c(C)c1C=O", "note": "(centres unmarked)", "hERG current change (%, negative = inhibition) at 1uM": 12}, {"smiles": "Cc1ccc(SC(C)C(=O)O/N=C(\\N)c2ccncc2)cc1", "note": "(centres unmarked)", "hERG current change (%, negative = inhibition) at 1uM": 11.7}, {"smiles": "COc1ccccc1CNC(=O)CSc1cc(=O)n(C)c2ccccc12", "hERG current change (%, negative = inhibition) at 1uM": 8}, {"smiles": "CNCc1sccc1C.Cl", "hERG current change (%, negative = inhibition) at 1uM": -0.299}, {"smiles": "CCOCCn1c(CN2CCCCC2C)nc2c1c(=O)n(C)c(=O)n2C", "note": "(centres unmarked)", "hERG current change (%, negative = inhibition) at 1uM": 12.7}, {"smiles": "COc1ccc(NC2CCCN(C(=O)c3ccccc3N3CCOCC3)C2)cc1OC", "note": "(centres unmarked)", "hERG current change (%, negative = inhibition) at 1uM": 13.2}, {"smiles": "Cc1ccc(C)c(NC(=O)c2ccccc2Sc2ccc([N+](=O)[O-])cc2Cl)c1", "hERG current change (%, negative = inhibition) at 1uM": 8.06}, {"smiles": "COc1cccc(NC(=O)CN(C)CC(=O)Nc2ccc(C)c([N+](=O)[O-])c2)c1", "hERG current change (%, negative = inhibition) at 1uM": 6.87}, {"smiles": "Oc1[nH]c(=S)sc1C=C1N=c2ccccc2=N1", "hERG current change (%, negative = inhibition) at 1uM": 16.6}, {"smiles": "COc1cccc(C(=O)NCCN2C(=O)S/C(=C/c3cccs3)C2=O)c1OC", "hERG current change (%, negative = inhibition) at 1uM": 8.24}, {"smiles": "COCCCn1c(C(=O)N2CC(C)OC(C)C2)cc2c(=O)n3ccccc3nc21", "note": "(centres unmarked)", "hERG current change (%, negative = inhibition) at 1uM": 3.32}, {"smiles": "C/C(Cn1nnc2ccccc21)=N\\NC(=O)c1ccc(Br)cc1", "hERG current change (%, negative = inhibition) at 1uM": 6.17}, {"smiles": "CC(C)Nc1nc(NC(C)C)nc(Oc2ccc(=O)n(C)n2)n1", "hERG current change (%, negative = inhibition) at 1uM": 13.3}, {"smiles": "CC12CCC(C(=O)N(NC(=O)c3ccc(O)cc3)C1=O)C2(C)C", "note": "(centres unmarked)", "hERG current change (%, negative = inhibition) at 1uM": 22}, {"smiles": "COc1ccc(N(CC(=O)Nc2cc(Cl)ccc2OC)C2=NC3CS(=O)(=O)CC3S2)cc1", "note": "(centres unmarked)", "hERG current change (%, negative = inhibition) at 1uM": 1.31}, {"smiles": "COc1ccc(Cl)cc1NC(=O)CNc1ccc(F)cc1C", "hERG current change (%, negative = inhibition) at 1uM": 13.8}, {"smiles": "O=C(COc1ccc(Cl)cc1Cl)NCC(=O)N/N=C/c1c[nH]c2ccccc12", "hERG current change (%, negative = inhibition) at 1uM": 16.6}, {"smiles": "CN(CC(=O)Nc1ccccc1Cl)C(=O)COC(=O)/C=C/c1cccc(C(F)(F)F)c1", "hERG current change (%, negative = inhibition) at 1uM": 11}, {"smiles": "COc1cccc(OCc2nnc(SCC(=O)NCc3ccco3)n2C)c1", "hERG current change (%, negative = inhibition) at 1uM": 14.6}, {"smiles": "CC1CC(=O)NN1C(=O)c1ccccc1", "note": "(centres unmarked)", "hERG current change (%, negative = inhibition) at 1uM": 9}, {"smiles": "CCOC(=O)Cn1c(CN2CCc3ccccc3C2)nc2c1c(=O)n(C)c(=O)n2C", "hERG current change (%, negative = inhibition) at 1uM": 8.77}, {"smiles": "Cc1nn(C)c(C(=O)Nc2ccn(Cc3ccccc3F)n2)c1[N+](=O)[O-]", "hERG current change (%, negative = inhibition) at 1uM": -3.75}, {"smiles": "O=C(NCC(=O)N1CCN(c2ccccc2O)CC1)c1ccc2c(c1)OCO2", "hERG current change (%, negative = inhibition) at 1uM": 2.18}, {"smiles": "O=S(=O)(Nc1cccc(-c2ccc(N3CCCCCC3)nn2)c1)c1cccc(F)c1", "hERG current change (%, negative = inhibition) at 1uM": 14.3}, {"smiles": "CC(C)C[C@H](CO)Nc1nc(N(C)c2cccc(Cl)c2)c2ncn(C(C)C)c2n1", "hERG current change (%, negative = inhibition) at 1uM": 6.77}]}]}
